# This is one part of the list.
# B1: PX9961H-bth-557-24-557 (Bacteroides thetaiotaomicron) (protein)
# chain: EETRTEVEKKNYMNNAEEAKDVLLGVYRTNTLDAMYGYYLSILFNLGTDISQVEGSGNENFRIIPTNSFPTTQSEVQQTWAALYTGIYRANDFLERISNKIGSYTTTDKKLATLYIAEARALRGMFYFELVRRFGNVVLMTSTQMSNQNPATYVQSAPEKVYEYIEDDLLYACDILPYATDDQYRESNDYRFSKGAALGLLTKVYATWAGYPVKDESKWEAAAKTARILVESGKHGLLKDYEQLWKNTCNGTWDPTESLIEISFYSPTVSGNSDPVGRIGKWNGVKTTAIAGVRGSCAANVKVVHTFVLDWREDVSDIRRDLSIANYQYTDTKKSLWVAGASDTDESAAEKDADPTKAQKNKQNYTPAKWDIQKYVTTNSFINNDKSNVNWYFLRYADVLLLYAEALNEWKHGPDAEAYNAINAVRRRGYGNPSNTSACDLPQGLDETSFREAVRKERSYELSFEGHRRQDLIRWGIYYKTVQATAKELGYWWEGTGSPNYSVATYTEEGKHELFPIPQRDMDLCIQFNQNPKW
# Legend:
# Test in all cases: glycan array binding signal (z-score within array); higher = stronger binding
# Details in all cases: glycan notation: IUPAC condensed, linker removed
# [1] = molecular target: GlcNAc(b1-2)Gal(b1-3)GalNAc
# Procedure, shortened: (§1)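 Columns mapping to the same glycan were averaged after glycan names were converted to IUPAC-condensed notation. The data come from 3228 arrays in the Consortium for Functional Glycomics database, limited to those with an available protein sequence. Binding is reported as a within-array Z-score averaged across arrays of one protein sequence and across linkers.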
# [2] = molecular target: GlcNAc(b1-2)Man(a1-3)[GlcNAc(b1-2)Man(a1-6)]Man(b1-4)GlcNAc(b1-4)GlcNAc
# Procedure, shortened: as §1
# [3] = molecular target: GlcNAc(b1-2)Man(a1-3)[GlcNAc(b1-2)Man(a1-6)]Man(b1-4)GlcNAc(b1-4)[Fuc(a1-6)]GlcNAc
# Procedure, shortened: as §1
# [4] = molecular target: GlcNAc(b1-2)Man(a1-3)[GlcNAc(b1-4)][GlcNAc(b1-2)Man(a1-6)]Man(b1-4)GlcNAc(b1-4)GlcNAc
# Procedure, shortened: as §1
# [5] = molecular target: GlcNAc(b1-2)Man(a1-3)[GlcNAc(b1-4)][GlcNAc(b1-2)Man(a1-6)]Man(b1-4)GlcNAc(b1-4)[Fuc(a1-6)]GlcNAc
# Procedure, shortened: as §1
# [6] = molecular target: GlcNAc(b1-2)[GlcNAc(b1-4)]Man(a1-3)[GlcNAc(b1-2)Man(a1-6)]Man(b1-4)GlcNAc(b1-4)GlcNAc
# Procedure, shortened: as §1
# [7] = molecular target: GlcNAc(b1-2)[GlcNAc(b1-4)]Man(a1-3)[GlcNAc(b1-4)][GlcNAc(b1-2)Man(a1-6)]Man(b1-4)GlcNAc(b1-4)GlcNAc
# Procedure, shortened: as §1
# [8] = molecular target: GlcNAc(b1-2)[GlcNAc(b1-4)]Man(a1-3)[GlcNAc(b1-4)][GlcNAc(b1-2)[GlcNAc(b1-6)]Man(a1-6)]Man(b1-4)GlcNAc(b1-4)GlcNAc
# Procedure, shortened: as §1
# [9] = molecular target: GlcNAc(b1-2)[GlcNAc(b1-4)]Man(a1-3)[GlcNAc(b1-4)][GlcNAc(b1-2)[GlcNAc(b1-6)]Man(a1-6)]Man(b1-4)GlcNAc(b1-4)[Fuc(a1-6)]GlcNAc
# Procedure, shortened: as §1
# [10] = molecular target: GlcNAc(b1-2)[GlcNAc(b1-6)]Man(a1-6)[GlcNAc(b1-2)Man(a1-3)]Man(b1-4)GlcNAc(b1-4)GlcNAc
# Procedure, shortened: as §1
# [11] = molecular target: GlcNAc(b1-2)[GlcNAc(b1-6)]Man(a1-6)[GlcNAc(b1-2)Man(a1-3)]Man(b1-4)GlcNAc(b1-4)[Fuc(a1-6)]GlcNAc
# Procedure, shortened: as §1
# [12] = molecular target: GlcNAc(b1-2)[GlcNAc(b1-6)]Man(a1-6)[GlcNAc(b1-4)][GlcNAc(b1-2)Man(a1-3)]Man(b1-4)GlcNAc(b1-4)GlcNAc
# Procedure, shortened: as §1
# GlcNAc(b1-3)Fuc = molecular target: GlcNAc(b1-3)Fuc
# Procedure, shortened: as §1
# GlcNAc(b1-3)Gal = molecular target: GlcNAc(b1-3)Gal
# Procedure, shortened: as §1
# [13] = molecular target: GlcNAc(b1-3)Gal(b1-3)GalNAc
# Procedure, shortened: as §1
# GlcNAc(b1-3)Gal(b1-4)Glc = molecular target: GlcNAc(b1-3)Gal(b1-4)Glc
# Procedure, shortened: as §1
# [14] = molecular target: GlcNAc(b1-3)Gal(b1-4)GlcNAc
# Procedure, shortened: as §1
# [15] = molecular target: GlcNAc(b1-3)Gal(b1-4)GlcNAc(b1-2)Man(a1-3)[GlcNAc(b1-3)Gal(b1-4)GlcNAc(b1-2)Man(a1-6)]Man(b1-4)GlcNAc(b1-4)GlcNAc
# Procedure, shortened: as §1
# [16] = molecular target: GlcNAc(b1-3)Gal(b1-4)GlcNAc(b1-2)Man(a1-3)[GlcNAc(b1-3)Gal(b1-4)GlcNAc(b1-2)Man(a1-6)]Man(b1-4)GlcNAc(b1-4)[Fuc(a1-6)]GlcNAc
# Procedure, shortened: as §1
# [17] = molecular target: GlcNAc(b1-3)Gal(b1-4)GlcNAc(b1-2)[GlcNAc(b1-3)Gal(b1-4)GlcNAc(b1-6)]Man(a1-6)[GlcNAc(b1-3)Gal(b1-4)GlcNAc(b1-2)Man(a1-3)]Man(b1-4)GlcNAc(b1-4)GlcNAc
# Procedure, shortened: as §1
# [18] = molecular target: GlcNAc(b1-3)Gal(b1-4)GlcNAc(b1-3)Gal(b1-4)GlcNAc
# Procedure, shortened: as §1
# [19] = molecular target: GlcNAc(b1-3)Gal(b1-4)GlcNAc(b1-3)Gal(b1-4)GlcNAc(b1-2)Man(a1-3)[GlcNAc(b1-3)Gal(b1-4)GlcNAc(b1-3)Gal(b1-4)GlcNAc(b1-2)Man(a1-6)]Man(b1-4)GlcNAc(b1-4)GlcNAc
# Procedure, shortened: as §1
# [20] = molecular target: GlcNAc(b1-3)Gal(b1-4)GlcNAc(b1-3)Gal(b1-4)GlcNAc(b1-2)Man(a1-3)[GlcNAc(b1-3)Gal(b1-4)GlcNAc(b1-3)Gal(b1-4)GlcNAc(b1-2)Man(a1-6)]Man(b1-4)GlcNAc(b1-4)[Fuc(a1-6)]GlcNAc
# Procedure, shortened: as §1
# [21] = molecular target: GlcNAc(b1-3)Gal(b1-4)GlcNAc(b1-3)Gal(b1-4)GlcNAc(b1-2)[GlcNAc(b1-3)Gal(b1-4)GlcNAc(b1-3)Gal(b1-4)GlcNAc(b1-6)]Man(a1-6)[GlcNAc(b1-3)Gal(b1-4)GlcNAc(b1-3)Gal(b1-4)GlcNAc(b1-2)Man(a1-3)]Man(b1-4)GlcNAc(b1-4)[Fuc(a1-6)]GlcNAc
# Procedure, shortened: as §1
# [22] = molecular target: GlcNAc(b1-3)Gal(b1-4)GlcNAc(b1-3)Gal(b1-4)GlcNAc(b1-3)Gal(b1-4)GlcNAc(b1-2)Man(a1-3)[GlcNAc(b1-3)Gal(b1-4)GlcNAc(b1-3)Gal(b1-4)GlcNAc(b1-3)Gal(b1-4)GlcNAc(b1-2)Man(a1-6)]Man(b1-4)GlcNAc(b1-4)GlcNAc
# Procedure, shortened: as §1
# [23] = molecular target: GlcNAc(b1-3)Gal(b1-4)GlcNAc(b1-3)Gal(b1-4)GlcNAc(b1-3)Gal(b1-4)GlcNAc(b1-2)Man(a1-3)[GlcNAc(b1-3)Gal(b1-4)GlcNAc(b1-3)Gal(b1-4)GlcNAc(b1-3)Gal(b1-4)GlcNAc(b1-2)Man(a1-6)]Man(b1-4)GlcNAc(b1-4)[Fuc(a1-6)]GlcNAc
# Procedure, shortened: as §1
# [24] = molecular target: GlcNAc(b1-3)Gal(b1-4)GlcNAc(b1-3)Gal(b1-4)GlcNAc(b1-3)Gal(b1-4)GlcNAc(b1-2)[GlcNAc(b1-3)Gal(b1-4)GlcNAc(b1-3)Gal(b1-4)GlcNAc(b1-3)Gal(b1-4)GlcNAc(b1-6)]Man(a1-6)[GlcNAc(b1-3)Gal(b1-4)GlcNAc(b1-3)Gal(b1-4)GlcNAc(b1-3)Gal(b1-4)GlcNAc(b1-2)Man(a1-3)]Man(b1-4)GlcNAc(b1-4)[Fuc(a1-6)]GlcNAc
# Procedure, shortened: as §1
# [25] = molecular target: GlcNAc(b1-3)Gal(b1-4)GlcNAc(b1-3)Gal(b1-4)GlcNAc(b1-3)Gal(b1-4)GlcNAc(b1-3)Gal(b1-4)GlcNAc(b1-2)Man(a1-3)[GlcNAc(b1-3)Gal(b1-4)GlcNAc(b1-3)Gal(b1-4)GlcNAc(b1-3)Gal(b1-4)GlcNAc(b1-3)Gal(b1-4)GlcNAc(b1-2)Man(a1-6)]Man(b1-4)GlcNAc(b1-4)GlcNAc
# Procedure, shortened: as §1
# [26] = molecular target: GlcNAc(b1-3)Gal(b1-4)GlcNAc(b1-3)Gal(b1-4)GlcNAc(b1-3)Gal(b1-4)GlcNAc(b1-3)Gal(b1-4)GlcNAc(b1-2)Man(a1-3)[GlcNAc(b1-3)Gal(b1-4)GlcNAc(b1-3)Gal(b1-4)GlcNAc(b1-3)Gal(b1-4)GlcNAc(b1-3)Gal(b1-4)GlcNAc(b1-2)Man(a1-6)]Man(b1-4)GlcNAc(b1-4)[Fuc(a1-6)]GlcNAc
# Procedure, shortened: as §1
# [27] = molecular target: GlcNAc(b1-3)Gal(b1-4)GlcNAc(b1-3)Gal(b1-4)GlcNAc(b1-3)Gal(b1-4)GlcNAc(b1-3)Gal(b1-4)GlcNAc(b1-2)[GlcNAc(b1-3)Gal(b1-4)GlcNAc(b1-3)Gal(b1-4)GlcNAc(b1-3)Gal(b1-4)GlcNAc(b1-3)Gal(b1-4)GlcNAc(b1-6)]Man(a1-6)[GlcNAc(b1-3)Gal(b1-4)GlcNAc(b1-3)Gal(b1-4)GlcNAc(b1-3)Gal(b1-4)GlcNAc(b1-3)Gal(b1-4)GlcNAc(b1-2)Man(a1-3)]Man(b1-4)GlcNAc(b1-4)[Fuc(a1-6)]GlcNAc
# Procedure, shortened: as §1
# [28] = molecular target: GlcNAc(b1-3)Gal(b1-4)GlcNAc(b1-3)Gal(b1-4)GlcNAc(b1-3)GalNAc
# Procedure, shortened: as §1
# [29] = molecular target: GlcNAc(b1-3)Gal(b1-4)GlcNAc(b1-3)GalNAc
# Procedure, shortened: as §1
# [30] = molecular target: GlcNAc(b1-3)Gal(b1-4)GlcNAc(b1-3)[GlcNAc(b1-3)Gal(b1-4)GlcNAc(b1-3)]GalNAc
# Procedure, shortened: as §1
# [31] = molecular target: GlcNAc(b1-3)Gal(b1-4)GlcNAc(b1-6)[Gal(b1-3)]GalNAc
# Procedure, shortened: as §1
# [32] = molecular target: GlcNAc(b1-3)Gal(b1-4)GlcNAc(b1-6)[GlcNAc(b1-3)Gal(b1-3)]GalNAc
# Procedure, shortened: as §1
# [33] = molecular target: GlcNAc(b1-3)Gal(b1-4)GlcNAc(b1-6)[GlcNAc(b1-3)]Gal(b1-4)GlcNAc
# Procedure, shortened: as §1
# GlcNAc(b1-3)GalNAc = molecular target: GlcNAc(b1-3)GalNAc
# Procedure, shortened: as §1
binder,measurement,setting,value
B1,glycan array binding signal (z-score),[1],-0.43
same,glycan array binding signal (z-score),[2],-0.333
same,glycan array binding signal (z-score),[3],-0.372
same,glycan array binding signal (z-score),[4],-0.514
same,glycan array binding signal (z-score),[5],-0.607
same,glycan array binding signal (z-score),[6],-0.18
same,glycan array binding signal (z-score),[7],-0.433
same,glycan array binding signal (z-score),[8],-0.501
same,glycan array binding signal (z-score),[9],-0.257
same,glycan array binding signal (z-score),[10],0.155
same,glycan array binding signal (z-score),[11],-0.401
same,glycan array binding signal (z-score),[12],-0.23
same,glycan array binding signal (z-score),GlcNAc(b1-3)Fuc,-0.184
same,glycan array binding signal (z-score),GlcNAc(b1-3)Gal,0.222
same,glycan array binding signal (z-score),[13],0.164
same,glycan array binding signal (z-score),GlcNAc(b1-3)Gal(b1-4)Glc,-0.404
same,glycan array binding signal (z-score),[14],-0.443
same,glycan array binding signal (z-score),[15],-0.301
same,glycan array binding signal (z-score),[16],-0.359
same,glycan array binding signal (z-score),[17],0.487
same,glycan array binding signal (z-score),[18],-0.278
same,glycan array binding signal (z-score),[19],0.221
same,glycan array binding signal (z-score),[20],0.558
same,glycan array binding signal (z-score),[21],-0.231
same,glycan array binding signal (z-score),[22],-0.299
same,glycan array binding signal (z-score),[23],-0.105
same,glycan array binding signal (z-score),[24],-0.177
same,glycan array binding signal (z-score),[25],-0.352
same,glycan array binding signal (z-score),[26],-0.077
same,glycan array binding signal (z-score),[27],0.101
same,glycan array binding signal (z-score),[28],-0.557
same,glycan array binding signal (z-score),[29],-0.341
same,glycan array binding signal (z-score),[30],-0.364
same,glycan array binding signal (z-score),[31],-0.508
same,glycan array binding signal (z-score),[32],0.212
same,glycan array binding signal (z-score),[33],-0.404
same,glycan array binding signal (z-score),GlcNAc(b1-3)GalNAc,-0.172

# From the supplement of paper PMC8728848
